Results taken from patent US20220363781A1 (SICHUAN KELUN BIOTECH BIOPHARMACEUTICAL, published 2022).

T1: monkey TSLP-His (cynomolgus monkey, Macaca fascicularis) (cynomolgus monkey (Macaca fascicularis), UniProt A0A7N9CAT7 29-159)
T1 construct: Whole entry XP_005557555.1 is named; also called cTSLP
T1 sequence: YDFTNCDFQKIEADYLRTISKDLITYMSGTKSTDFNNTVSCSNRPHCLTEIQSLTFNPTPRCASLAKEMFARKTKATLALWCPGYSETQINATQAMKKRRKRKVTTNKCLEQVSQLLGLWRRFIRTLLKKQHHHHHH


How the values were obtained:
human TSLP-His [1] = molecular target: T2, human TSLP-His (human, UniProt Q969D9 29-159); experiment: ELISA, human TSLP-His coated, antibody titrated, anti-human Fc-HRP
T2 construct: Whole entry NP_149024.1 is named; Expressed in E. coli or HEK293F; also called hTSLP; hTSLP-His

human TSLP-His [2] = molecular target: T2, human TSLP-His; experiment: cell-based or functional assay
[3] = molecular target: T1, monkey TSLP-His (cynomolgus monkey, …); experiment: ELISA, monkey TSLP-His coated, antibody titrated, anti-human Fc-HRP
human TSLP-His [4] = molecular target: T2, human TSLP-His; experiment: cell-based or functional assay; remark: listed apart in the source
[5] = molecular target: T1, monkey TSLP-His (cynomolgus monkey, …); experiment: BLI (Fortebio), antibody on ProA sensor, monkey TSLP 1.5625-100 nM, 1:1 model
human TSLP-His [6] = molecular target: T2, human TSLP-His; experiment: BLI (Fortebio), antibody on ProA sensor, human TSLP 1.5625-100 nM, 1:1 model
human TSLP-His [7] = molecular target: T2, human TSLP-His; experiment: BLI (Fortebio), antibody on ProA sensor, human TSLP titrated, 1:1 model
FcRn (biotin-labeled) [8] = experiment: BLI (Fortebio), biotin-FcRn on SA sensor, antibody 1.5625-200 nM, pH 6.0, 1:1 model
human TSLP-His [9] = molecular target: T2, human TSLP-His; experiment: cell-based or functional assay; remark: listed apart in the source
human TSLP-His [10] = molecular target: T2, human TSLP-His; experiment: cell-based or functional assay; remark: listed apart in the source
FcRn (biotin-labeled) [11] = experiment: BLI (Fortebio), biotin-FcRn on SA sensor, pH 6.0

Sequence of FcRn (biotin-labeled) (P55899 24-297, chain 1 of 2): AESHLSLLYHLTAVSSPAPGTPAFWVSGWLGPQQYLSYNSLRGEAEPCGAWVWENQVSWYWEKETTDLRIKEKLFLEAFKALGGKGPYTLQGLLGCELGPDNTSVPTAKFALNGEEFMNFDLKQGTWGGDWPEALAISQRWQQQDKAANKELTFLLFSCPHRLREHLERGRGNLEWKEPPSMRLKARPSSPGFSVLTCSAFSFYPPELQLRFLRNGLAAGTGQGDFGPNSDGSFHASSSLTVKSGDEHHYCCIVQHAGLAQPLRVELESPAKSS
Sequence of FcRn (biotin-labeled) (P61769 21-119, chain 2 of 2, further chain): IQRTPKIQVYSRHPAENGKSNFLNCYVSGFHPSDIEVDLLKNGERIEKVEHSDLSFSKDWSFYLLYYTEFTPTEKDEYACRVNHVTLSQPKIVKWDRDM

Binder | EC50 (human TSLP-His [1]) [nM] | hTSLP EC50, inhibition of the proliferation of Ba/F3-hTSLPR-hIL7Rα cells (human TSLP-His [2]) [nM] | EC50 [3] [nM] | EC50, inhibition of human TSLP-induced PBMC secretion of TARC (human TSLP-His [4]) [nM] | Kd [5] [nM] | Kd (human TSLP-His [6]) [nM] | Kd (human TSLP-His [7]) [nM] | Kd (FcRn (biotin-labeled) [8]) [nM] | EC50, inhibition of human TSLP-induced PBMC secretion of MDC (human TSLP-His [9]) [nM] | hTSLP EC50, inhibition of the proliferation of Ba/F3-hTSLPR-hIL7Rα cells (human TSLP-His [10]) [nM] | fold affinity for FcRn against the control antibody (FcRn (biotin-labeled) [11])
recombinant fully human antibody 43B1A8-hIgG (antibody, also called 43BlA8-hIgG; 43B1A8-hIgGlt) heavy: QMQLVESGGGAVQPGRSLRLSCAASGFTFRSYDMHWVRQAPGKGLEWVAVIWYDGSNENYADSVKGRFTTSRDNSKNTLFLQMNSLRAEDTAVYYCARSPLWYGEPDDAFDIWGQGTLVTVSSASTKGPSVFPLAPSSKSTSGGTAALGCLVKDYFPEPVTVSWNSGALTSGVHTFPAVLQSSGLYSLSSVVTVPSSSLGTQTYICNVNHKPSNTKVDKKV[human IgG1 Fc with L234A L235A G237A (EU numbers) cut from this listing] light: EIVMTQSPATLSVSPGERATLSCRASQSVSSNLAWYQQKPGQAPRLLISGASTRATGIPARFSGSGSGTDFTLTISSLRSEDFAVYYCQHYNNWPLTFGGGTKVEIKRTVAAPSVFIFPPSDEQLKSGTASVVCLLNNFYPREAKVQWKVDNALQSGNSQESVTEQDSKDSTYSLSSTLTLSKADYEKHKVYACEVTHQGLSSPVTKSFNRGEC | 0.8 | 0.031 | 0.23 | 0.44 | 1.02 | 0.581 |  |  |  |  | 
recombinant fully human antibody 43B1-H2L2 (antibody, human IgG1, kappa) heavy: QMQLVESGGGAVQPGGSLRLSCAASGFTFRSYDMHWVRQAPGKGLEWVAVIWYDGSNENYADSVKGRFTTSRDNSKNTLFLQMNSLRAEDTAVYYCARSPLWYGEPDDAFDIWGQGTLVTVSSASTKGPSVFPLAPSSKSTSGGTAALGCLVKDYFPEPVTVSWNSGALTSGVHTFPAVLQSSGLYSLSSVVTVPSSSLGTQTYICNVNHKPSNTKVDKKV[human IgG1 Fc with L234A L235A G237A N434A (EU numbers) cut from this listing] light: EIVMTQSPATLSVSPGERATLSCRASQSVSSNLAWYQQKPGQAPRLLISGASTRATGIPARFSGSGSGTDFTLTISSLQSEDFAVYYCQHYNNWPLTFGGGTKVEIKRTVAAPSVFIFPPSDEQLKSGTASVVCLLNNFYPREAKVQWKVDNALQSGNSQESVTEQDSKDSTYSLSSTLTLSKADYEKHKVYACEVTHQGLSSPVTKSFNRGEC |  |  |  |  |  |  | 0.233 | 5.25 | 0.00784 | 0.64 | ~2 times that of the control antibody
recombinant fully human antibody 43B1-H6L1 (antibody, human IgG4 S228P, kappa) heavy: QMQLVESGGGAVQPGRSLRLSCAASGFTFRSYDMHWVRQAPGKGLEWVAVIWYDGSNENYADSVKGRFTTSRDNSKNTLFLQMNSLRAEDTAVYYCARSPLWYGEPDDAFDIWGQGTLVTVSSASTKGPSVFPLAPCSRSTSESTAALGCLVKDYFPEPVTVSWNSGALTSGVHTFPAVLQSSGLYSLSSVVTVPSSSLGTKTYTCNVDHKPSNTKVDKRV[human IgG4 Fc with S228P N434A (EU numbers) cut from this listing] light: EIVMTQSPATLSVSPGERATLSCRASQSVSSNLAWYQQKPGQAPRLLISGASTRATGIPARFSGSGSGTDFTLTISSLRSEDFAVYYCQHYNNWPLTFGGGTKVEIKRTVAAPSVFIFPPSDEQLKSGTASVVCLLNNFYPREAKVQWKVDNALQSGNSQESVTEQDSKDSTYSLSSTLTLSKADYEKHKVYACEVTHQGLSSPVTKSFNRGEC |  |  |  |  |  |  | 0.419 | 4.23 |  | 0.46 | ~2 times that of the control antibody

Read-outs that look alike come from different tables or passages of the source.
